# In all, about 380,000 compounds went through this assay and about 25 (0.007%) were called active. The inconclusive results got no clear call from the source; some entries with a clear call stand among them for comparison. The call rests on the fitted dose curve; in most records, active means well fitted activation curve with a large enough effect; inconclusive means small, poorly fitted or top-dose-only effect; inactive means no such curve, though single readings can be large or run the other way. Potencies of inconclusive entries are left out as doubtful fits.
# Target: Glucagon-like peptide 1 receptor (Homo sapiens) (UniProt P43220)
# Experiment: qHTS of GLP-1 Receptor Agonists; on activation: % of control where 0% means no effect
# Conditions: HEK293 GLP-1R CRE-luciferase, luminescence, 4-6 h, cells express a hypersensitive GLP-1R form; activation: at 45.6 µM (top of the series) unless noted
# Potency means the concentration at half of the fitted maximal effect; tags describe the fitted curve by direction and shape.
# Chain of UniProt P43220 (P43220 whole entry, looked up): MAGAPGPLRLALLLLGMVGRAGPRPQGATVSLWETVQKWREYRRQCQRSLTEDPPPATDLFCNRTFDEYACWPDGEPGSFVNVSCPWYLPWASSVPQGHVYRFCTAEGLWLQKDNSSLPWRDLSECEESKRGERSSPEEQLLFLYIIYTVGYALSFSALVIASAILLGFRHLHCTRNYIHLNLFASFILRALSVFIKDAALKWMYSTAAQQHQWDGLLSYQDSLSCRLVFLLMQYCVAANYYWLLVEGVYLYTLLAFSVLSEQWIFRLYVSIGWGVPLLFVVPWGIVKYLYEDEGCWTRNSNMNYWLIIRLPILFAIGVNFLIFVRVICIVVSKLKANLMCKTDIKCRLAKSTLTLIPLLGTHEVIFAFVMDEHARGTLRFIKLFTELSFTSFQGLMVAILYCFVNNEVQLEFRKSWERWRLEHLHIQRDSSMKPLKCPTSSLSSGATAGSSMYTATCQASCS
SMILES,Potency,activation
COc1ccc(-c2cc(C3CC3)nc(N)c2C#N)cc1,"inconclusive [activator, full curve, poor fit]",
CCc1nn2c(-c3ccccc3OC)ccnc2c1-c1ccccc1,,inactive: -0.386%
COC(=O)c1ccc(CSc2nnnn2-c2ccccc2)o1,"inconclusive [activator, partial curve, poor fit]",
COc1ccc(-c2cnc3c(NC(C)=O)cc(-c4cccc(C(=O)NCCO)c4)cn23)cc1OC,"inconclusive [activator, partial curve]",
NC(CO)C(O)c1ccc([N+](=O)[O-])cc1 (configuration not stated),"inconclusive [activator, single point]",
O=C(O)c1nn(CCOc2ccc(Br)cc2)c(=O)c2ccccc12,"inconclusive [activator, single point]",
COc1ccc(-c2cc(C(=O)N3CCCC(C(F)(F)F)C3)c3ccccc3n2)cc1OC (configuration not stated),"inconclusive [activator, partial curve]",
CC(C)Cn1c(N)c(S(=O)(=O)c2cccs2)c2nc3ccccc3nc21,"inconclusive [activator, partial curve, poor fit]",
Cc1ccc(S(=O)(=O)Cc2ccc(C(=O)N3CCN(c4cccc(C)c4C)CC3)o2)cc1,,inactive: 13.1%
COc1ccc(NC(=O)c2cc3c(-c4ccc(OC)c(OC)c4)nn(C)c3s2)cc1OC,"inconclusive [activator, single point]",
COc1ccc(/C=N/NC(=O)c2cccnc2)cc1CSc1ccccn1,,inconclusive: 56.9% [activator]
OC(COc1ccc(F)cc1)CN1CCN(c2ccccc2F)CC1 (configuration not stated),,inactive: -5.44%
COc1ccc(-c2nc(-c3ccc(O)cc3O)cs2)cc1OC,"inconclusive [activator, partial curve]",
Cc1nc2ccc(NC(=O)Cc3cccs3)cc2s1,,inactive: -2.33%
CNC[C@H](O)c1cccc(O)c1,"inconclusive [activator, partial curve, poor fit]",
N#Cc1nc(COc2ccccc2F)oc1N1CCCCCC1,"inconclusive [activator, single point]",
CCN(CC)c1nc(OC)nc(-n2nnc(C(C)=O)c2C)n1,"inconclusive [activator, partial curve]",
O=C1NC2c3ccccc3CC2O1 (configuration not stated),,inactive: -5.45%
COc1cc(OC)c(C(=O)NCc2ccc3c(c2)OCO3)cc1OC,"inconclusive [activator, partial curve, poor fit]",
COc1ccc(CNC(=O)c2cnn3c(C(F)F)cc(C)nc23)cc1,"inconclusive [activator, partial curve, poor fit]",
COc1ccc(NC(=S)Nc2ccccc2)c(OC)c1,,inactive: -5.34%
CC(=O)NC1=C(NC2CCS(=O)(=O)C2)C(=O)c2ccccc2C1=O (configuration not stated),,inactive: -5.39%
CCOc1cc2[nH]c(=S)n(CCCOC)c(=O)c2cc1OCC,"inconclusive [activator, partial curve, poor fit]",
Cc1ccc(C)c(NS(=O)(=O)c2ccc(-c3cnc(C4CC4)o3)cc2)c1,"inconclusive [activator, partial curve]",

SMILES,Potency,activation
CC(C)CCNC(=O)CCCOc1cc(=O)n(C)c2ccccc12,,inactive: 11.4%
COc1ccc(-c2nc(C)c(CCNC(=O)c3cccc(C)c3)s2)cc1OC,"inconclusive [activator, partial curve, poor fit]",
c1ccc(-c2nc3c4ccccc4ccn3c2CN2CCCCC2)cc1,"inconclusive [activator, partial curve, poor fit]",
O=C(COc1ccc(F)cc1Br)NCC1COc2ccccc2O1 (configuration not stated),"inconclusive [activator, single point]",
O=c1c(-c2ccc(O)cc2)coc2cc(O)cc(O)c12,"inconclusive [activator, single point]",
COc1ccc(C(CCN2CCCC2)c2c(OC)cc(OC)c3c(-c4ccccc4)cc(=O)oc23)cc1 (configuration not stated),"inconclusive [activator, partial curve, poor fit]",
Cc1cc(C)nc(SCc2ccc(C(=O)N/N=C/c3ccncc3)cc2)n1,,inactive: 29%
COCCNC(=S)N/N=C(\C)c1cccc(OC)c1,,inactive: 6.33%
Cc1ccc(/C=C2/CNC/C(=C/c3ccc(C)cc3)C2=O)cc1,,inactive: -4.39%
CC(=O)Nc1ccc(N(C(=O)c2cnccn2)C(C(=O)NC2CCCCC2)c2ccc(F)cc2)cc1 (configuration not stated),,inactive: 4%
COc1ccc([C@H]2N[C@]3(CCCN(Cc4ccc(C(F)(F)F)cc4)C3=O)[C@H]3C(=O)N(C)C(=O)[C@@H]23)cc1,,inactive: -3.59%
CCOc1ccc(Oc2ccc(Cl)cc2NC(=O)C2=COCCO2)cc1,,inactive: 13.7%
O=[N+]([O-])c1cnccc1NC1CCCCC1,"inconclusive [activator, partial curve, poor fit]",
Clc1cccc2sc(N3CCOCC3)nc12,"inconclusive [activator, partial curve]",
COc1ccc(-c2sc3ccc(OC)cc3c2C#CCCO)cc1,"inconclusive [activator, partial curve, poor fit]",
COc1ccc(-c2csc(-c3cccnc3)n2)cc1C,"inconclusive [activator, partial curve, poor fit]",
Cc1ccccc1NC(=O)c1cc(C(=O)c2cc(Cl)ccc2O)cn(-c2ccccc2C)c1=O,,inactive: -15.8%
Cc1ccc(S(=O)(=O)N2C[C@H]3n4c(=O)ccc(=O)n4C[C@H](OC(=O)NCc4ccccc4)[C@@]3(O)C2)cc1,,inactive: -5.16%
COc1ccc(C)cc1NC(=O)c1ccc(NS(=O)(=O)c2cccc3cccnc23)cc1,"inconclusive [activator, partial curve, poor fit]",
O=C(OCCOc1cccc(Cl)c1)c1cc(S(=O)(=O)N2CCCCC2)ccc1N1CCOCC1,,inactive: -1.38%
Fc1cccc(C2NN=C(c3ccccc3)S2)c1 (configuration not stated),,inactive: 9.29%
COc1ccc(CCNC(=O)c2nn(C)c3c2CS(=O)(=O)c2ccccc2-3)cc1OC,,inactive: 15%
Cc1cc(Cl)c2oc(C(=O)NC(C)c3ccncn3)c(C)c2c1 (configuration not stated),"inconclusive [activator, single point]",
COc1ccc(-c2cc(C(=O)N(C)CC(=O)Nc3cccc(F)c3)c3ccccc3n2)cc1OC,"inconclusive [activator, partial curve, poor fit]",

SMILES,Potency,activation
CCOc1ccc(CCNS(=O)(=O)c2cnc[nH]2)cc1OCC,"inconclusive [activator, single point]",
O=C(COc1ccccc1)Nc1ccc(S(=O)(=O)N2CCOCC2)cc1,,inactive: 19.3%
CC(=O)Nc1cc(-c2ccccc2Cl)cn2c(-c3ccc(S(C)(=O)=O)cc3)cnc12,"inconclusive [activator, partial curve, poor fit]",
Cc1nc(COc2ccccc2Cl)sc1-c1ccnc(N)n1,"inconclusive [activator, single point]",
COc1ccc(S(=O)(=O)Nc2cccc(S(=O)(=O)N(C)C)c2)cc1[N+](=O)[O-],,inactive: -2.52%
CCn1nc(C(=O)OCc2c(C)noc2C)c2ccccc2c1=O,"inconclusive [activator, partial curve, poor fit]",
COc1ccc(C=NNC(=S)NN=Cc2ccc(OC)c(OC)c2)cc1OC,"inconclusive [activator, partial curve]",
Cc1ccc(CNC(=O)c2cn(C)c(=O)c3c2c2ccccc2n3C)o1,,inactive: 6.05%
CSc1ccc(/C=N/NC(=O)CN2CCN(Cc3ccc(C)cc3)CC2)cc1,,inactive: 14.3%
COc1ccc(C(=O)Nc2ccccc2C(=O)N/N=C/c2ccccn2)cc1OC,"inconclusive [activator, partial curve, poor fit]",
COc1cccc(C(=O)Nc2ccc(-c3nc4ccccc4o3)c(O)c2)c1,,inactive: -5.96%
COc1ccc(CCNC(=O)c2c(C)nn(CC(C)C)c2Cl)cc1,"inconclusive [activator, single point]",
CO/N=C(\C(=O)N[C@@H]1C(=O)N2C(C(=O)OCOC(=O)C(C)(C)C)=C(C)CS[C@H]12)c1csc(N)n1,,inactive: -5.02%
Cc1ccccc1-n1c(SCc2ccccn2)nc2n[nH]c(C)c2c1=N,"inconclusive [activator, partial curve, poor fit]",
CN1/C(=C\C(=O)c2cccnc2Cl)C(C)(C)c2ccccc21,"inconclusive [activator, partial curve, poor fit]",
CSc1ccc(NC(=O)NCCCN2CCC(Cc3ccccc3)CC2)cc1,,inactive: 1.58%
COc1cc(/C=N/NC(=O)NC23CC4CC(CC(C4)C2)C3)ccc1OCC(N)=O,,inactive: 23.6%
Clc1cccc(Cl)c1/C=C/c1nc2ccccc2[nH]1,,inactive: -0.713%
Cc1ccccc1CN(C)Cc1cc(=O)oc2c(C)c(C)ccc12,"inconclusive [activator, single point]",
C=CCn1c(SCC#N)nc2ccccc2c1=O,"inconclusive [activator, single point]",
O=C(CSc1nc2[nH]ncc2c(=O)[nH]1)NCc1ccccc1,,inactive: 0.828%
COc1ccc(CCNS(=O)(=O)c2ccc3c(c2)OCCO3)cc1OC,"inconclusive [activator, partial curve, poor fit]",
Cc1cc(S(=O)(=O)N2CCOCC2)ccc1OCC(=O)Nc1ccccc1F,,inactive: -0.118%
CC1CCN(S(=O)(=O)c2cc(C(=O)NCc3ccccc3)n(C)c2)CC1,,inactive: 0.921%

# Reference: PubChem BioAssay AID624172 (National Center for Advancing Translational Sciences (NCATS), 2012)
